According to PubChem BioAssay AID1479 (National Center for Advancing Translational Sciences (NCATS), 2009):
Out of some 280,000 compounds screened, about 820 (0.29%) were called active. This list was built around the results that the source calls inconclusive (neither active nor inactive); the mix of calls is not that of the screen. The call rests on the fitted dose curve; in most records, active means well fitted curve in either direction with a large enough effect; inconclusive means small, poorly fitted or top-dose-only effect; inactive means flat fitted curve, though single readings scatter. No potency is given beside an inconclusive call; the fits are too rough. Where a structure was tested more than once in an assay, its records may differ in their call.

Assay: Total Fluorescence Counterscreen for Inhibitors of the Interaction of Thyroid Hormone Receptor and Steroid Receptor Coregulator 2
Conditions: TRb/SRC2 Texas Red total fluorescence interference; series mostly up to 106 µM; fluorescence change, negative = quenching: at the top concentration
Method in brief: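 Flags fluorescent or light-absorbing compounds by total fluorescence, S + 2P, at 555 nm excitation and 632 nm emission. Mixture: 20 nM Texas Red SRC2 peptide, 0.6 uM human TRb LBD, 1 uM T3, 5% DMSO; compound exposure 5 h at ambient temperature.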
On the % scale 0 is the no-effect control and ±100 the full control effect; potency means the concentration at half of the fitted maximal effect; tags describe the fitted curve by direction and shape or compound fluorescence and quenching.

Q: For Cc1ccc(NC(=O)CN2C(=O)CN=C(c3ccccc3)c3ccccc32)cc1Cl, which Potency is on record?
A: Its Potency is inconclusive [falling, partial curve, poor fit].

Q: With Cc1ccccc1-n1c(O)c(/C=C2/C(c3ccccc3)=Nc3ccccc32)c(=O)[nH]c1=O as the compound, how does the Potency read?
A: The Potency was active: 31.6 µM [quencher].

Q: With Nc1ccccc1 as the compound, how does the “fluorescence change, negative = quenching” value (“fluorescence change” below) read?
A: Its value is inactive: -1.99%.

Q: With CC/C(=C\C=C\[C@@H]1C=C[C@@H]2CCC[C@H]2[C@@H]1C(=O)c1ccc[nH]1)[C@@H]1O[C@@H]([C@@H](C)C(=O)O)CC[C@@H]1C as the compound, how does the “fluorescence change” value read?
A: Its value is inactive: -0.784%.

Q: Which “fluorescence change” value does the source give for Cc1cnc(C2=NC(C)(C(C)C)C(=O)N2)c(C(=O)O)c1 (stereo unspecified) here?
A: The value was inactive: 0.224% [at 201 µM].

Q: For O=C(O)c1cccc2c1NC(C(=O)O)C1CC(Sc3ccccc3[N+](=O)[O-])C(Cl)C21 (stereo unspecified), which Potency is on record?
A: Its Potency is inconclusive [falling, single point].

Q: For O=C(/C=C/c1ccc2c(c1)OCO2)c1c(O)n(CCC2=CCCCC2)c(=O)[nH]c1=O, which “fluorescence change” value is on record?
A: Its value is inactive: -36.6%.

Q: With O=C1NC(=S)N(c2ccccc2)C(=O)C1C(c1ccncc1)C1C(=O)NC(=S)N(c2ccccc2)C1=O (stereo unspecified) as the compound, how does the “fluorescence change” value read?
A: The value was inactive: -4.19%.

Q: Which “fluorescence change” value does the source give for C(CCc1nn[nH]n1)CCc1nn[nH]n1 here?
A: The value was inactive: -0.0606%.

Q: Which Potency does the source give for CCOP(=O)(OCC)C(NC(=O)c1ccccc1C)C(Cl)(Cl)Cl (stereo unspecified) here?
A: The Potency was active: 3.16 µM [quencher].

Q: Which “fluorescence change” value does the source give for Cc1ccc2c(c1)=NC(=O)/C(=C/c1c(O)[nH]c(=O)[nH]c1=O)C=2 here?
A: The value was inactive: -0.358%.

Q: With Nc1cccc(N=Cc2c(O)n(Cc3ccc(F)cc3)c(=O)[nH]c2=O)c1 as the compound, how does the “fluorescence change” value read?
A: The value was inactive: -0.33%.

Q: With O=C1OC(c2cc(I)c(O)c(I)c2)(c2cc(I)c(O)c(I)c2)c2ccccc21 as the compound, how does the Potency read?
A: Its Potency is inconclusive [quencher, partial curve].

Q: With CCOP(=O)(OCC)C(NC(=O)c1cccc2ccccc12)C(Cl)(Cl)Cl (stereo unspecified) as the compound, how does the Potency read?
A: Its Potency is active: 31.6 µM [quencher].

Q: Which Potency does the source give for O=c1[nH]c(=S)n(C2CC2)c(O)c1C=Nc1cccc(C(F)(F)F)c1 here?
A: The Potency was inconclusive [falling, full curve, poor fit].

Q: For O=C(Nc1ccc(OC(F)(F)F)cc1)C1CCN(S(=O)(=O)c2cccs2)CC1, which Potency is on record?
A: The Potency was inconclusive [falling, full curve, poor fit].

Q: Which “fluorescence change” value does the source give for Cc1ccc(N2C(=O)NC(=O)/C(=C\c3cnc(-c4ccccc4)nc3)C2=O)cc1 here?
A: The value was inactive: 7.94%.

Q: For O=C1NC(=S)NC(=O)C1=Cc1cccn1-c1ccc(O)cc1, which “fluorescence change” value is on record?
A: The value was inactive: -3.72%.

Q: With CC(=O)OC1CC(OC2C(O)CC(OC3C(O)CC(OC4CCC5(C)C(CCC6C5CC(O)C5(C)C(C7=CC(=O)OC7)CCC65O)C4)OC3C)OC2C)OC(C)C1OC1OC(CO)C(O)C(O)C1O (stereo unspecified) as the compound, how does the Potency read?
A: The Potency was inconclusive [falling, partial curve, poor fit].

Q: Which Potency does the source give for CC(C)NC[C@@H](O)COc1cccc2[nH]ccc12 here?
A: The Potency was inconclusive [falling, full curve, poor fit].

Q: With O=[N+]([O-])c1ccc2ccc3cccc4ccc1c2c34 as the compound, how does the “fluorescence change” value read?
A: Its value is inactive: -8.75% [at 201 µM].

Q: With Cc1cc(C=C2C(=O)NC(=S)NC2=O)c(C)n1-c1ccc2c(c1)OCO2 as the compound, how does the Potency read?
A: Its Potency is active: 28200 µM [quencher].

Q: For CCS(=O)(=O)c1cccnc1S(=O)(=O)NC(=O)Nc1nc(OC)cc(OC)n1, which “fluorescence change” value is on record?
A: Its value is inactive: -4.12% [at 201 µM].

Q: With NC(Cc1cc(O)c(O)cc1O)C(=O)O (stereo unspecified) as the compound, how does the Potency read?
A: The Potency was active: 11.2 µM [quencher].

Q: For CC(=O)[O-].CC(=O)[O-].O.O.[Cd+2], which “fluorescence change” value is on record?
A: Its value is inactive: 0.884%.

Q: With CN(N=O)c1cc(O)ccc1O as the compound, how does the Potency read?
A: Its Potency is active: 12.6 µM [quencher].

Q: Which Potency does the source give for COCC(C)N(C(=O)CCl)c1c(C)csc1C (stereo unspecified) here?
A: The Potency was inconclusive [quencher, full curve].

Q: Which Potency does the source give for Cc1cc(C)cc(OCC(=O)Nc2ccc(-c3nc4ccccc4s3)cc2)c1 here?
A: Its Potency is inconclusive [falling, partial curve, poor fit].

Q: For CC(C)N1C(=O)/C(=C/C=C/c2ccco2)C(=O)N(Cc2ccco2)C1=O, which “fluorescence change” value is on record?
A: Its value is inactive: -7.34%.

Q: Which Potency does the source give for CCCN1CCCC2Cc3[nH]ncc3CC21 (stereo unspecified) here?
A: Its Potency is active: 35.5 µM [quencher].

Q: For CCCCCCC(=O)N/N=C/c1c(O)n(CCCC)c(=S)[nH]c1=O, which “fluorescence change” value is on record?
A: Its value is inactive: -1.31%.

Q: Which Potency does the source give for Cc1cccc(N2C(=O)NC(=O)/C(=C\c3cnc(-c4ccccc4)nc3)C2=O)c1 here?
A: The Potency was active: 1.26 µM [quencher].

Q: Which Potency does the source give for COc1cccc(NC(=O)c2cccn(Cc3ccccc3C)c2=O)c1 here?
A: Its Potency is inconclusive [falling, full curve, poor fit].

Q: For COC(=O)c1ccccc1CS(=O)(=O)NC(=O)Nc1nc(OC)cc(OC)n1, which “fluorescence change” value is on record?
A: Its value is inactive: -0.684% [at 201 µM].

Q: For CN(C)c1ccc(NC(=O)c2sc3nc4c(cc3c2N)N2CCC4CC2)cc1, which Potency is on record?
A: The Potency was active: 14.1 µM [quencher].

Q: Which Potency does the source give for Cc1oc(-c2cccc(Cl)c2)nc1CN1CCC(C(=O)NCCCN2CCN(c3ccc(F)cc3)CC2)CC1 here?
A: The Potency was inconclusive [falling, full curve, poor fit].

Q: With NC[C@@H](CC(=O)O)c1ccc(Cl)cc1 as the compound, how does the Potency read?
A: The Potency was inconclusive [falling, partial curve, poor fit].

Q: With CN(C)C1C(=O)C(C(N)=O)=C(O)[C@@]2(O)C(=O)C3=C(O)c4c(O)cccc4[C@@](C)(O)C3CC12 (stereo partly specified) as the compound, how does the Potency read?
A: Its Potency is inconclusive [quencher, partial curve].

Q: With COc1ccc(Cn2c(O)c(/C=N/NC(=O)c3ccccc3O)c(=O)[nH]c2=O)cc1 as the compound, how does the Potency read?
A: Its Potency is inconclusive [falling, full curve, poor fit].

Q: With O=C1NC(=O)N(c2ccccc2F)C(=O)/C1=C/c1ccc(Sc2nc3ccccc3[nH]2)o1 as the compound, how does the Potency read?
A: Its Potency is active: 44.7 µM [fluorescent].

Q: With CCc1ccc(OCC(=O)N2CCN(CCc3ccncc3)CC2)cc1 as the compound, how does the Potency read?
A: Its Potency is active: 708 µM [quencher].

Q: Which Potency does the source give for COc1ccccc1NC(=O)N(Cc1ccco1)C1CCN(C(C)=O)CC1 here?
A: The Potency was inconclusive [falling, partial curve, poor fit].

Q: For CCOc1ccc(CC(=O)NCCc2csc3nc(-c4ccccc4F)nn23)cc1, which Potency is on record?
A: Its Potency is inconclusive [falling, partial curve, poor fit].

Q: With N#CC(C#N)=Cc1ccc(O)cc1 as the compound, how does the Potency read?
A: Its Potency is inconclusive [quencher, partial curve].

Q: For Nc1nc2ccc(Cl)cc2c2nc(-c3ccco3)nn12, which Potency is on record?
A: Its Potency is inconclusive.

Q: Which Potency does the source give for c1cncc(C2=NCCC2)c1 here?
A: The Potency was inconclusive [falling, full curve, poor fit].
